The campaign covered roughly 340,000 compounds. About 6,900 (2%) were called active. Rule as the data show it: active = inhibition above about 30%; inactive = below that, where a call was filed. The entries are a selection whose mix differs from that of the whole data set. Where no call is shown, the source filed none.
target: D(2) dopamine receptor (Homo sapiens) (UniProt P14416); assay: HTS Assay for Allosteric Antagonists of the Human D2 Dopamine Receptor: Primary Screen for Antagonists; settings: HEK293 TREx D2 cells, calcium flux, dopamine EC80; at 10 µM; stronger effect = higher value; also: 0% is about no effect
Outline: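 Antagonism is scored as inhibition of an EC80 dopamine-evoked calcium signal in a force-coupled, tetracycline-inducible HEK293 T-REx D2 line, with compound present 180 s before agonist.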

Chain of UniProt P14416 (P14416 whole entry, looked up): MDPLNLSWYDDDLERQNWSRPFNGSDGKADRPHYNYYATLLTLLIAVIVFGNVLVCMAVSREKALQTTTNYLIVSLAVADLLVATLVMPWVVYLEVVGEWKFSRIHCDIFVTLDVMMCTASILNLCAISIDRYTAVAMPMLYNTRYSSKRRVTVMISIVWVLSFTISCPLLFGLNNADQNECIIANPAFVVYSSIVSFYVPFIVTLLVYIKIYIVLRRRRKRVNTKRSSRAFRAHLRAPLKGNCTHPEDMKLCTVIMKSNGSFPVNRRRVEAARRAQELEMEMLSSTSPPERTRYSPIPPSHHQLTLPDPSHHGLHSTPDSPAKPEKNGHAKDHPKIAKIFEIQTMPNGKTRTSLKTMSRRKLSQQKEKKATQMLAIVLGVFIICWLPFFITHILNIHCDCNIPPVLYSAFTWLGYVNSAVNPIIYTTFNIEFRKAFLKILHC

Row | Structure (SMILES) | inhibition
1 | Cc1cc(NC(=O)Nc2nnc(N3CCCCC3)s2)ccc1Br | -17.6%
2 | CCN(Cc1ccccc1)C(=O)Cn1c(=O)n(-c2ccc(Cl)c(Cl)c2)c(=O)c2c(C)c(C(=O)N(C)C)sc21 | 26.9%
3 | COc1ccccc1CNC(=O)CSc1nc(=O)[nH]c2c1CCCC2 | 26.5%
4 | Cc1ccc(NC(=O)CCn2c(=O)c3cccn3c3ccccc32)cc1Cl | 2.14%
5 | COc1ccc(N2CC(NC(=O)C(=O)c3c(C)[nH]c4ccccc34)CC2=O)cc1 (stereo unspecified) | -15.2%
6 | COc1cc(OC)c(NC(=O)Cn2cnc3sc(C)c(S(=O)(=O)N4CCC(C)CC4)c3c2=O)cc1Cl | 0.618%
7 | COc1ccc(-c2nc3ccc(Cl)cn3c2Nc2ccc(C)cc2)cc1 | -11.5%
8 | COc1ccc(OCC2c3cc(OC)c(OC)cc3CCN2C(=O)c2c(F)cccc2F)cc1 (stereo unspecified) | 9.15%
9 | CCc1ccc(-n2nc(CO)c(C(=O)NCc3cccs3)n2)cc1 | -5.49%
10 | Cc1cc(C)cc(NC(=O)COCc2cc(-c3ccc4c(c3)OCO4)on2)c1 | 6.21%
11 | COc1cccc(-c2nc(CS(=O)(=O)CC(=O)NCCc3ccc(Cl)cc3)c(C)o2)c1 | -3.79%
12 | Cc1ccc(-n2ncc3c(Nc4cccc(C(F)(F)F)c4)ncnc32)cc1C | -10.5%
13 | Cc1cc2c(cc1S(=O)(=O)NCc1ccccc1Cl)OCC(=O)N2 | 14.3%
14 | CC1CCCCN1C(=O)CSc1c2c(nc3cc(Cl)ccc13)CCCC2 (stereo unspecified) | 10.3%
15 | CCOCCn1c(=O)c2c(nc3n2CCN3c2ccc(C)c(C)c2)n(C)c1=O | 7.39%
16 | CCN1CCN(c2nc(Nc3cccc(C)c3)nc(N)c2[N+](=O)[O-])CC1 | active: 84.9%
17 | COc1cccc(N2CCN(C(=O)C3CCN(S(=O)(=O)c4cn(C)cn4)CC3)CC2)c1 | 2.38%
18 | NS(=O)(=O)c1ccc(NC(=O)c2csnn2)cc1 | -16.7%
19 | CC(C)c1ccc(NC(=O)c2cnc3sc(N4CCOCC4)nn3c2=O)cc1 | -5.91%
20 | COc1ccc(NC(=O)CN(C)S(=O)(=O)c2ccc3c(c2)c(=O)n(C)c(=O)n3C)cc1 | 9.93%
21 | COc1ccc(OC)c(NC(=O)Cn2cnc3onc(-c4ccc(Cl)cc4)c3c2=O)c1 | -1.27%
22 | COCCn1c(C)cc(O)c(C(c2ccc(OC)cc2)N2CCN(c3ccccc3)CC2)c1=O (stereo unspecified) | -4.3%
23 | Cc1ccc(C)c(-n2nnc(C(=O)Nc3ccc(Br)cc3)c2C)c1 | -5.67%
24 | COc1ccc(CCNC(=O)c2cc(=O)[nH]c3ccc(S(=O)(=O)N4CCCCC4C)cc23)cc1OC (stereo unspecified) | -25.1%

Row | Structure (SMILES) | inhibition
25 | COc1cc(CCC(=O)OCC(=O)Nc2ccc(C(N)=O)cc2)cc(OC)c1OC | active: 38.6%
26 | CCOCCCNC(=O)c1c(NC(=O)c2nc(SC)ncc2Cl)sc2c1CCCC2 | 4.96%
27 | Cc1cn2c(=O)cc(COC(=O)c3ccc(NC(=O)C(C)Oc4ccccc4)cc3)nc2s1 (stereo unspecified) | -14.2%
28 | COc1ccc(OC)c(NC(=O)CCNC(=O)Cn2cnc3ccccc3c2=O)c1 | 3.01%
29 | O=C(NCCc1ccccc1)c1nn(-c2ccccc2Cl)nc1CO | -24.9%
30 | O=C(Nc1cc(Cl)cc(Cl)c1)c1cc(S(=O)(=O)N2CCC3(CC2)OCCO3)ccc1F | -2.38%
31 | Fc1ccc(Nc2c(-c3ccccn3)nc3ccc(Cl)cn23)cc1 | -16.6%
32 | COc1cccc(NC(=O)Cc2csc(COc3cccc(C)c3)n2)c1 | -18.3%
33 | CCOC(=O)c1c(N)n(-c2cc(C)cc(C)c2)c2nc3ccccc3nc12 | -0.517%
34 | COc1cc2c(cc1OC)C(c1cc3cc4c(cc3[nH]c1=O)OCO4)N(C(=O)C1CC1)CC2 (stereo unspecified) | active: 32.6%
35 | Cc1ccc(N2CCN(S(=O)(=O)c3ccc(-n4cnnn4)cc3)CC2)c(C)c1 | 11.3%
36 | Cc1ccc(Cl)cc1N1CCN(C(=O)c2ccc3c(c2)N(Cc2ccccc2)CCS3)CC1 | 13.6%
37 | CCn1nnc2cc(C(=O)Nc3ccc(OC)cc3)ccc21 | 1.16%
38 | COc1ccc(-n2c(=O)c3c4c(sc3n(Cc3ccc(C(C)(C)C)cc3)c2=O)CCC4)c(OC)c1 | -4.39%
39 | Cc1ccc(-c2ccc(CCC(=O)O)n2-c2cccc(C)c2C)cc1 | -6.24%
40 | CCOc1ccc(Br)cc1S(=O)(=O)Nc1cccc(-c2ccc(OC)nn2)c1 | -2.65%
41 | Cc1ccc(C)c(N2CCN(C(=O)CN3C(=O)COc4ccc(S(=O)(=O)N5CCC(C)CC5)cc43)CC2)c1 | 17.5%
42 | COc1ccc(NC(=O)c2c(C)oc3ccc(O)c(CN4CCCCCC4)c23)cc1 | -1.64%
43 | COc1ccc(NC(=O)C(NC(=O)C2CCC(C)CC2)C(C)C)cc1 (stereo unspecified) | 6.47%
44 | CCC(Sc1ncccc1C(=O)Oc1ccccc1Cl)C(=O)Nc1ccccc1OC (stereo unspecified) | -20%
45 | CCCNC(=O)c1ccc2c(c1)nc(C)n2-c1cccc(C)c1 | 4.09%
46 | Cc1ccc2c(=O)c(C(=O)c3ccccc3)cn(CC(=O)Nc3ccc(C)c(Cl)c3)c2n1 | 9.29%
47 | Cc1nn(C)c2c1c(C(F)(F)F)cc(=O)n2C(C)C(=O)NCCC(C)C (stereo unspecified) | -3.33%
48 | CN1CCN(C(=O)Cn2c(-c3cccs3)cc3ccccc32)CC1 | 9.21%

Row | Structure (SMILES) | inhibition
49 | Cc1ccc(N2C(=O)CS(=O)(=O)C23C(=O)N(Cc2ccccc2C)c2ccccc23)cc1Cl (stereo unspecified) | -0.437%
50 | O=C(Nc1ccnn1C1CCN(CCCc2ccccc2)CC1)c1ccccc1 | active: 43.6%
51 | COc1ccc(NC(=O)Cn2nc(-c3ccccc3)c3cnc4ccc(C)cc4c32)cc1 | 17.5%
52 | Cc1nc2ccn(Cc3ccco3)c(=O)c2cc1C(=O)Nc1ccc(F)cc1 | 5.35%
53 | COc1ccc(-n2c(=O)[nH]c3cc(C(=O)NCCc4ccc(Cl)cc4)ccc3c2=O)cc1OC | -6.05%
54 | Cc1ccc(OCC(=O)Nc2ccc3c(c2)sc(=O)n3C)cc1 | 11%
55 | CCOC(=O)c1c(NC(=O)COc2ccc(CC)cc2)sc2c1CCCC2 | -8.56%
56 | COc1ccc(CNC(=O)CCc2c(C)c3ccc(OC)c(C)c3oc2=O)cc1OC | -3.18%
57 | COC(=O)c1ccc(-n2nnc(-c3nc(-c4ccccc4Cl)no3)c2C)cc1 | -3.44%
58 | CCNC(=O)C1CCCN(c2ncnc3onc(C)c23)C1 (stereo unspecified) | -1.29%
59 | Cc1ccc(C(=O)c2oc3ccccc3c2NC(=O)c2cc(=O)c3cc(C)ccc3o2)cc1 | -14.1%
60 | Cc1ccc(NC(=O)c2nnn(Cc3cccc(C(F)(F)F)c3)c2N)c(C)c1 | 2.11%
61 | COc1cccc(Cn2ccn(-c3ccc(F)cc3)c(=O)c2=O)c1 | 4.33%
62 | CSCCC(=O)N1CC[C@@H](N2CCN(c3ccccc3F)CC2)[C@H](O)C1 | active: 44.6%
63 | O=C(Nc1ccc(Cl)cc1)N1CCC(CN2CCCCCC2)CC1 | -11.6%
64 | Cc1ccc(-c2nnc(SCC(=O)N3CCCc4ccccc43)o2)cc1 | -0.302%
65 | CCCCNc1nc(Oc2ccc(=O)n(-c3ccccc3)n2)nc(N(CC)CC)n1 | -12.1%
66 | Cc1cc(NC(=O)CSc2nc3c([nH]c4ccccc43)c(=O)n2-c2ccccc2F)no1 | 25.1%
67 | CCOC(=O)C1CCN(c2cc(C)nc3c(-c4ccccc4OC)c(C)nn23)CC1 | -8.48%
68 | O=C(Nc1nnc(S(=O)(=O)N2CCCCCC2)s1)c1ccccc1F | 11.7%
69 | CCOc1cccc2sc(N3CCN(C(=O)C(C)(C)C)CC3)nc12 | 8.18%
70 | Cc1nc(N2CCOCC2)c2c(C(=O)N(C)Cc3ccccc3)c(C)oc2n1 | -1.48%
71 | CCc1ccc(CNC(=O)C2CCN(c3nnc(C)c4c(C)n(-c5ccc(C)cc5)nc34)CC2)cc1 | 8.05%
72 | CCOc1ccc(N(C(C)C(=O)NCCSc2ccc(Cl)cc2)S(C)(=O)=O)cc1 (stereo unspecified) | -15.1%

Row | Structure (SMILES) | inhibition
73 | C=CCNCCOCCSc1ccc(Cl)cc1 | active: 31.8%
74 | Cc1cc(NC(=O)c2cc(-c3ccc(Br)cc3)on2)nn1Cc1ccc(Cl)cc1 | -9.52%
75 | COc1cc(NC(=O)c2ccc3c(Cl)c4c(nc3c2)CCC4)cc(OC)c1OC | 13.6%
76 | Cc1ccc(/C=N/NC(=O)c2ccc(N(C)S(=O)(=O)c3ccccc3)cc2)cc1 | active: 48.3%
77 | CC(C)(CC(=O)OCC(=O)Nc1ccccc1F)CC1=NS(=O)(=O)c2ccccc2N1 | 0.926%
78 | CCOC(=O)Cn1c(=O)c2c(nc(N3CCOCC3)n2Cc2ccccc2)n(C)c1=O | 2.08%
79 | O=C(Nc1nc2n(n1)C(c1ccccc1)C=C(c1ccc(Cl)cc1)N2)c1ccco1 (stereo unspecified) | 3.08%
80 | COc1cccc(Cn2c(SCc3ccc(C(=O)N4CCCCC4)cc3)nc3ccncc32)c1 | -4.34%
81 | Cc1cc(Cl)ccc1NC(=O)CN1C(=O)COc2ccc(S(=O)(=O)Nc3ccccc3)cc21 | 3.78%
82 | Cc1ccc(CN(Cc2ccco2)C(=O)COc2cccc(C)c2C)o1 | -20.2%
83 | CCOC(=O)C1CCCN(C(=O)c2ccc3c(c2)sc2nc(-c4ccc(C)cc4C)cn23)C1 (stereo unspecified) | 7.3%
84 | CCOc1ccc(-c2nonc2NC(=O)c2oc3cc(C)ccc3c2C)cc1OCC | 11.3%
85 | O=C(COc1ccc(F)cc1)Nc1nnc(SCc2cc(=O)n3ccccc3n2)s1 | -13.5%
86 | COc1ccc(C)cc1NC(=O)C(Cc1ccccc1)NS(=O)(=O)c1ccc(Br)s1 (stereo unspecified) | 5.88%
87 | COc1ccc(N2Cc3cccc(C(=O)Nc4ccc(Cl)cc4)c3C2=O)cc1 | -12%
88 | O=C(Nc1nc2cc3c(cc2s1)OCCO3)c1ccc([N+](=O)[O-])o1 | active: 37.1%
89 | COc1ccc(-c2ccc3c(N)c(C(=O)NCc4ccc(C)cc4)sc3n2)cc1 | 11.5%
90 | Cc1ccc2c(c1)N(C(=O)N1CCC(C(=O)NCCc3ccccc3)CC1)CC(C)O2 (stereo unspecified) | 7.26%
91 | CC(C)(C)OC(=O)N1CCC(c2c(C(=O)NCCN3CCOCC3)cnn2-c2ccc(F)cc2)CC1 | 5.09%
92 | Cc1ccc2c(=O)cc(C(=O)Nc3sc4c(c3C(=O)NCC3CCCO3)CCCC4)oc2c1C (stereo unspecified) | -0.143%
93 | CCCOc1ccc(C2c3c(oc4ccccc4c3=O)C(=O)N2CCCN2CCOCC2)cc1 (stereo unspecified) | active: 36%
94 | O=C(c1cccc(Cl)c1)N1c2ncnn2C2(CCCCC2)[C@@H]2CCCC[C@@H]21 | 5.99%
95 | CC1CN(CCOCCSc2ccc(Cl)cc2)CC(C)O1 (stereo unspecified) | active: 50.2%
96 | CCc1c(C)sc2nc(C(C)C)nc(SCC(=O)N3CCc4ccccc4C3)c12 | active: 43.7%
